# In PubChem BioAssay AID504832 (National Center for Advancing Translational Sciences (NCATS), 2011):
# Hit rate of the full screen: of about 310,000 compounds, about 18,000 (5.8%) were called active. The shares of active, inactive and inconclusive entries below differ from those in the screen. The call rests on the fitted dose curve; in most records, active means well fitted inhibition curve with a large enough effect; inconclusive means small, poorly fitted or top-dose-only effect, or another doubt; inactive means no such curve, though single readings can be large or run the other way. No potency is given beside an inconclusive call; the fits are too rough.
# Assay: Primary qHTS for delayed death inhibitors of the malarial parasite plastid, 48 hour incubation
# Settings: P. falciparum luciferase growth in erythrocytes; series mostly up to 28.7 µM
# Outline: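 Parasite viability was followed by luminescence of a genomically integrated firefly luciferase. Cultures held 0.1% parasitemia at 2% hematocrit (final), incubated under 5% CO2 at 37 C.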
# Potency means the concentration at half of the fitted maximal effect; tags describe the fitted curve by direction and shape.
row,SMILES,Potency
1,C=CCSc1nnc(C)c(/C=C/Nc2ccc(Cl)cc2)n1,"inconclusive [inhibitor, single point]"
2,CCOc1ccccc1NC(=O)CN1CCc2ccccc2C1,"inconclusive [inhibitor, single point]"
3,O=C1C=C(c2ccc3cc[nH]c3c2)C[C@@H](c2ccc3c(c2)OCO3)C1,"inconclusive [inhibitor, single point]"
4,CC(C)C(=O)NC(NC(=S)NC1CCS(=O)(=O)C1)C(Cl)(Cl)Cl (stereo not drawn),active: 7.38 µM
5,CCC[N+](CC#Cc1ccccc1)(CCC)CC(=O)OC,inactive
6,CN1CC(=O)N2C(c3ccc(Cl)cc3)c3[nH]c4ccccc4c3C[C@H]2C1=O (stereo partly drawn),active: 8.28 µM
7,Clc1ccc(CNc2nc(CN3CCOCC3)nc3scc(-c4ccccc4)c23)cc1,"inconclusive [inhibitor, single point]"
8,COc1cccc(/C=C2\SC(=S)N(CCCC(=O)N3CCCC3)C2=O)c1,active: 13.1 µM
9,COc1ccccc1C(=O)COC(=O)c1nc2nc(C)cc(C)n2n1,"inconclusive [inhibitor, single point]"
10,COc1ccc(C2(O)CCN(CC(=O)Nc3nccs3)CC2)c(OC)c1,inactive
11,Cc1nn(-c2ccccc2)c(C)c1/C=C/C(=O)OCC(=O)Nc1ncc(C(F)(F)F)cc1Cl,inactive
12,CCc1sc(N(C(=O)Cc2ccccc2)c2cccc(F)c2)nc1-c1ccc(C)cc1,"inconclusive [inhibitor, partial curve]"
13,O=C(Nc1ccc(NC(=O)c2ccc([N+](=O)[O-])cc2[N+](=O)[O-])cc1)c1ccco1,"inconclusive [inhibitor, partial curve, poor fit]"
14,OC(CNCc1cccc(Br)c1)c1ccccc1 (stereo not drawn),active: 3.7 µM
15,Cn1c(=O)c2c(nc(NCc3ccccc3)n2Cc2ccc(F)cc2)n(C)c1=O,"inconclusive [inhibitor, partial curve, poor fit]"
16,Cc1ccc(NC(=O)C2C(c3ccccc3)C=CC(c3ccccc3)C2C(=O)O)cc1 (stereo not drawn),"inconclusive [inhibitor, single point]"
17,O=C(NCCOc1ccc(Cl)cc1)C1CCCCC1,active: 11.7 µM
18,O=C(OCc1c(Cl)cccc1Cl)c1ccccn1,inactive
19,COc1cc(C2OCC3C(c4ccc(OC5OC(CO)C(O)C(O)C5O)c(OC)c4)OCC23)ccc1O (stereo not drawn),inactive
20,OCC1(Cc2ccccc2C(F)(F)F)CCN(Cc2ccncc2)CC1,"inconclusive [inhibitor, single point]"
21,COc1ccccc1CNC(=O)[C@@H](NC(=O)C1CCN(C(=O)[C@@H]2CCCN2C(=O)OC(C)(C)C)CC1)C(C)C,"inconclusive [inhibitor, full curve, poor fit]"
22,Cc1nn(C)c(C)c1CCC(=O)N1CCCC(N2CCN(c3ccc(F)cc3)CC2)C1 (stereo not drawn),"inconclusive [inhibitor, partial curve, poor fit]"

row,SMILES,Potency
1,CCN1C(=NCC(C)C)N[C@@H](c2cccc(C(F)(F)F)c2)C(C(=O)OC)=C1C,active: 13.1 µM
2,COc1ccc(NC(=O)CN2C(=O)NC(C)(C3CC3)C2=O)c(OC)c1 (stereo not drawn),inactive
3,O=S(=O)(NCC(Nc1ccc(Cl)cc1)c1ccccc1)c1ccc(Cl)cc1 (stereo not drawn),"inconclusive [inhibitor, partial curve, poor fit]"
4,CCC1(CC)NC(=O)N(CC(=O)OCC(=O)Nc2sccc2C#N)C1=O,"inconclusive [inhibitor, full curve, poor fit]"
5,CN1/C(=C\C(=O)Nc2cccnc2)c2ccccc2CC1(C)C,"inconclusive [inhibitor, partial curve]"
6,O=C(CSc1nnc(COc2ccc(Cl)cc2)n1Cc1ccco1)N1CCNC1=O,"inconclusive [inhibitor, single point]"
7,CCN1CCN(Cc2ccc(NC(=O)c3cc(NC(=O)c4ccno4)cc(OC)c3)cc2C(F)(F)F)CC1,"inconclusive [inhibitor, partial curve, poor fit]"
8,CCN(CCCNC(=O)CC(C(=O)N1CCc2ccccc21)n1ccnc1)c1ccccc1 (stereo not drawn),"inconclusive [inhibitor, partial curve, poor fit]"
9,O=[N+]([O-])c1ccc(-n2nncc2-c2ccc(Cl)cc2)cc1,inactive
10,COc1ccc(NS(=O)(=O)c2ccc(-c3n[nH]c(=S)n3Cc3ccccc3)cc2)cc1,"inconclusive [inhibitor, single point]"
11,COc1cccc(C2CC(c3cccs3)=NN2C(=S)Nc2ccccc2)c1OC (stereo not drawn),"inconclusive [inhibitor, partial curve, poor fit]"
12,COc1ccc(S(=O)(=O)N2CCc3ccccc3C2)cc1,inactive
13,Cc1ccc(CSc2nn3c(=O)c(C)nnc3s2)cc1,active: 8.28 µM
14,CCN1C(=O)CC(N2CCC(c3nc4ccccc4[nH]3)CC2)C1=O (stereo not drawn),"inconclusive [inhibitor, partial curve]"
15,Cc1cccc(C)c1N1CCN(c2nc(N(C)C)oc(=O)c2C#N)CC1,"inconclusive [inhibitor, single point]"
16,Clc1ccc(CSc2snnc2-c2ccccc2)c(Cl)c1,inactive
17,O=C(CN1CCC(NC(=O)c2ccco2)CC1)Nc1ccccc1[N+](=O)[O-],"inconclusive [inhibitor, partial curve, poor fit]"
18,NNC(=O)COc1ccc(-c2nccc(-c3ccc(F)cc3)n2)cc1,"inconclusive [inhibitor, single point]"
19,O=C(N/N=C/c1cccc(Oc2ccccc2)c1)c1cccc(O)c1,inactive
20,CC(=O)c1cccc(S(=O)(=O)N2CCCC(c3nc(-c4ccc(C)o4)no3)C2)c1 (stereo not drawn),"inconclusive [inhibitor, single point]"
21,CC1=NN(c2ccc(C)cc2)C(=O)/C1=C/c1ccc(-c2cc([N+](=O)[O-])ccc2O)o1,"inconclusive [inhibitor, partial curve, poor fit]"
